From PubChem BioAssay AID588342 (National Center for Advancing Translational Sciences (NCATS), 2011)
In all, about 360,000 compounds went through this assay and about 25,000 (6.9%) were called active. The inconclusive results got no clear call from the source; some entries with a clear call stand among them for comparison. Calls follow the shape of the dose curve; as a rule, active = well fitted inhibition curve with a large enough effect; inconclusive = small, poorly fitted or top-dose-only effect; inactive = flat fitted curve, though single readings scatter. Potencies beside an inconclusive call are fits to weak or partial responses and may not hold up.

biological target: Luciferin 4-monooxygenase (Photinus pyralis) (UniProt P08659); assay: qHTS profiling assay for firefly luciferase inhibitor/activator using purifed enzyme and Km concentrations of substrates (counterscreen for miR-21 project); settings: purified FLuc, luminescence inhibition; activity change, negative = inhibition: at 57.5 µM (top of the series); also: nearly all actives have a fitted effect of over 55% in size;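 as to activity change, negative = inhibition: plate controls were vehicle for no effect and reference inhibitor for full effect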
Outline: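 Biochemical qHTS of compounds, final roughly 60 µM downward over six points, against 10 nM purified firefly luciferase using Km concentrations of substrates (10 uM D-luciferin, 10 uM ATP) in Tris acetate pH 7.5 buffer; luminescence output.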
Potency is read from the fitted curve at half-maximal effect; tags tell the direction and shape of the fitted curve.

Chain of UniProt P08659 (P08659 whole entry, looked up): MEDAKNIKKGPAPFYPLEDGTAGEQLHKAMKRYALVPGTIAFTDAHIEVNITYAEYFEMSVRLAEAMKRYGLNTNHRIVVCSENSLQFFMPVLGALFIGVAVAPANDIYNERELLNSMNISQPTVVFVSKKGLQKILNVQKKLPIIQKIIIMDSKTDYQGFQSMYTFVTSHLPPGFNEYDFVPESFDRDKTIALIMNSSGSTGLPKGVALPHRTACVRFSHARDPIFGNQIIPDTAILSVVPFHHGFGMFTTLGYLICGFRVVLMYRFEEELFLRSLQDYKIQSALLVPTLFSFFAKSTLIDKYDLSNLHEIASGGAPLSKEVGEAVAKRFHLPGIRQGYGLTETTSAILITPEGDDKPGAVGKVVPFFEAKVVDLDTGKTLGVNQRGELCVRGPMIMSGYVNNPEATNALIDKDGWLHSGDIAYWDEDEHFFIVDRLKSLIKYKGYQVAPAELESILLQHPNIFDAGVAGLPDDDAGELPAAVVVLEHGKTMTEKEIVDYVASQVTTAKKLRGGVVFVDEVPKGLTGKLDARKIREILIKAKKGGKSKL

Structure (SMILES) | Potency | activity change, negative = inhibition
Cn1c2ccccc2c2cc(/C=N/NC(=O)c3ccc(O)cc3O)ccc21 | inconclusive: 30.1 µM [inhibitor, single point] | 
CC(C)COC(=O)Nc1ccc(C(=O)O)cc1 | inconclusive: 30.1 µM [inhibitor, partial curve, poor fit] | 
Cc1cc(C)nc(N/N=C/c2cc3c(cc2[N+](=O)[O-])OCO3)n1 |  | inactive: -7.16%
O=C(CCCOc1ccccc1)NCc1ccco1 | inconclusive: 4.26 µM [inhibitor, full curve] | 
CCCCNC(=O)c1cccc(NC(=O)c2nsc3ccccc23)c1 | active: 4.78 µM | 
Cc1c(C(=O)NCc2ccc3c(c2)cc(C)n3C)cccc1[N+](=O)[O-] | inconclusive: 10.7 µM [inhibitor, partial curve] | 
CS(=O)(=O)c1ccc(NC(=O)CCN2C(=O)C3CC=CCC3C2=O)cc1 (configuration not stated) |  | inactive: -3.08%
CCOc1cccc(C(=O)Nc2cccc(C(C)=O)c2)c1 | inconclusive: 21.3 µM [inhibitor, single point] | 
O=C(c1ccc(F)cc1)N1CCc2c([nH]c3ccccc23)C1c1ccc(Cl)cc1 (configuration not stated) |  | inactive: -0.239%
COc1cc2ccccc2cc1C(=O)N/N=C/c1ccc2c(c1)OCO2 | inconclusive: 37.9 µM [inhibitor, single point] | 
Cc1cc(C(=O)CSc2nc3ccccc3o2)c(C)n1C1CC1 | active: 13.5 µM | 
CC(=O)CC(=O)Nc1ccc(Nc2ccccc2)cc1 | inconclusive: 30.1 µM [inhibitor, partial curve, poor fit] | 
c1csc(-c2csc(-c3cccs3)n2)c1 | active: 12 µM | 
O=[N+]([O-])c1cc(/C=N/O)ccc1Oc1ccccc1Cl | active: 19 µM | 
O=C(NC(=S)Nc1ccc(NC(=O)c2cccs2)cc1)c1cc2ccccc2o1 |  | inactive: 0.176%
O=C(O)c1ccccc1C(=O)Nc1ccc(-n2ccc(C(F)(F)F)n2)cc1 | inconclusive: 19 µM [inhibitor, single point] | 
Nc1nnnn1CC(=O)N/N=C/c1ccc(-c2cccc(Cl)c2)o1 |  | inactive: 6.74%
c1cc(-c2noc(CCC3CCCC3)n2)ccn1 | inconclusive: 21.3 µM [inhibitor, partial curve] | 
Cc1csc2ncc(C(=O)NCCc3ccccc3)c(=O)n12 | inconclusive: 23.9 µM [inhibitor, single point] | 
Cc1nc2cc(Nc3nnc(-c4ccccc4)c4ccccc34)ccc2n1C | active: 0.675 µM | 
O=C(NCCCO)c1ccc(CSc2nc3ccccc3[nH]2)cc1 | inconclusive: 26.9 µM [inhibitor, single point] | 
CN(C)c1ccc(Nc2ncnc3ccc(Br)cc23)cc1 | inconclusive: 26.9 µM [inhibitor, partial curve, poor fit] | 
